Some of the results follow.

One assay has as its system HSkMC. Briefly: cytotoxicity call (relative viability < 0.9). The conditions noted are these: 10 µM.
The subject of a further assay is HepG2. Briefly: cytotoxicity call (relative viability < 0.9). The following applies: 10 µM.
The next assay relates to S. aureus RN4220. Briefly: growth inhibition call (relative growth <= 0.2). The conditions noted are these: 50 µM.

For `C[C@@H](O)c1cccc(C(F)(F)F)c1`, the cytotoxicity call in the assay on HSkMC and in the assay with HepG2 was “inactive” throughout. For the same molecule, the growth inhibition call in the assay on S. aureus RN4220 was “inactive”.

With `COc1ccc(-c2oc3c(CC=C(C)C)c(OC4OC(CO)C(O)C(O)C4O)cc(O)c3c(=O)c2OC2OC(C)C(O)C(O)C2O)cc1` (centres undefined), the cytotoxicity call in the assay with HSkMC and with HepG2 was “inactive” each time. Moreover, the growth inhibition call in the assay with S. aureus RN4220 is “inactive”.

Consider `CNC[C@@H]1Oc2cc(C#CCN(C)C)ccc2S(=O)(=O)N([C@@H](C)CO)C[C@H]1C`, for which the cytotoxicity call in the assay on HSkMC and in the assay on HepG2 was “inactive” in each case. Besides, in the assay on S. aureus RN4220, the growth inhibition call is “inactive”.

Consider `COC1CC(OC2C(C)=CCC3CC(CC4(CCC(C)C(C5CCCCC5)O4)O3)OC(=O)C3C=C(C)C(=NO)C4OCC(=CC=CC2C)C34O)OC(C)C1O` (centres undefined), for which the cytotoxicity call with HSkMC and in the assay with HepG2 was “active” each time. Besides, the growth inhibition call in the assay on S. aureus RN4220 is “inactive”.

`O=C(C[C@H]1CC[C@H]2[C@@H](COC[C@H](O)CN2C(=O)Nc2ccc(C(F)(F)F)cc2)O1)NCCc1ccncc1`: the cytotoxicity call in the assay on HSkMC and in the assay on HepG2 was “inactive” in each case. Also, the growth inhibition call in the assay on S. aureus RN4220 was “active”.

`CSc1sc(C)cc1/C=N/O`: the cytotoxicity call with HSkMC and in the assay on HepG2 was “inactive” in each case. In addition, the growth inhibition call in the assay on S. aureus RN4220 is “inactive”.

Take `C[C@@H]1CN([C@H](C)CO)C(=O)c2cc(NS(=O)(=O)c3ccc(Cl)cc3)ccc2O[C@@H](C)CCCCO[C@@H]1CN(C)C(=O)CCC(F)(F)F`: the cytotoxicity call in the assay on HSkMC and with HepG2 was “inactive” throughout. The growth inhibition call with S. aureus RN4220 is “inactive”.

On to `C[C@H]1CCCCO[C@H](CN(C)Cc2ccc(C(=O)O)cc2)[C@@H](C)CN([C@@H](C)CO)C(=O)c2cc(NC(=O)NC3CCCCC3)ccc2O1`, for which the cytotoxicity call in the assay on HSkMC and with HepG2 was “inactive” throughout. Moreover, the growth inhibition call in the assay on S. aureus RN4220 was “inactive”.

In the case of `C[C@@H]1CN([C@@H](C)CO)C(=O)c2cccc(NC(=O)NC3CCCCC3)c2O[C@@H]1CN(C)S(=O)(=O)c1cn(C)cn1`, the cytotoxicity call in the assay with HSkMC and with HepG2 was “inactive” throughout. Also, the growth inhibition call with S. aureus RN4220 is “inactive”.

As for `O=C(C[C@H]1C=C[C@@H](NC(=O)c2cnccn2)[C@@H](CO)O1)NCc1ccccc1F`, the cytotoxicity call in the assay with HSkMC and in the assay with HepG2 was “inactive” each time. Moreover, the growth inhibition call in the assay with S. aureus RN4220 is “inactive”.

With `CC(C)(C)[S@](=O)N1Cc2cc(C(=O)NCc3ccccc3F)nc(-c3cccc(-c4ccncc4)c3)c2[C@@H]1CCO`, the cytotoxicity call in the assay with HSkMC and in the assay with HepG2 was “inactive” throughout. Moreover, the growth inhibition call with S. aureus RN4220 is “inactive”.

For the molecule `C[C@H](CO)N1C[C@H](C)[C@@H](CN(C)S(=O)(=O)c2ccc(Cl)cc2)Oc2c(NC(=O)c3cnccn3)cccc2C1=O`, the cytotoxicity call in the assay with HSkMC and in the assay on HepG2 was “inactive” each time. In addition, the growth inhibition call with S. aureus RN4220 is “inactive”.

As for `O=C(OC[C@H]1O[C@@H](OC(=O)c2cc(O)c(O)c(O)c2)[C@H](OC(=O)c2cc(O)c(O)c(O)c2)[C@@H](OC(=O)c2cc(O)c(O)c(O)c2)[C@@H]1OC(=O)c1cc(O)c(O)c(O)c1)c1cc(O)c(O)c(O)c1`, the cytotoxicity call in the assay with HSkMC and with HepG2 was “active” throughout. Further, in the assay on S. aureus RN4220, the growth inhibition call is “inactive”.

Regarding `Cn1cnc(S(=O)(=O)N[C@H]2C=C[C@@H](CC(=O)NCC3CC3)O[C@H]2CO)c1`, the cytotoxicity call with HSkMC and in the assay with HepG2 was “inactive” in each case. Besides, the growth inhibition call in the assay on S. aureus RN4220 is “inactive”.

On to `COc1ccc(NC(=O)Nc2ccc3c(c2)C(=O)N([C@@H](C)CO)C[C@H](C)[C@@H](CN(C)S(=O)(=O)c2ccccc2)OCCCC[C@H](C)O3)cc1`, for which the cytotoxicity call in the assay with HSkMC and in the assay with HepG2 was “inactive” each time. Also, the growth inhibition call in the assay on S. aureus RN4220 was “inactive”.

`COc1ccc(S(=O)(=O)N(C)C[C@H]2OCCCC[C@@H](C)Oc3ccc(NC(=O)c4ccccc4)cc3C(=O)N([C@H](C)CO)C[C@@H]2C)cc1`: the cytotoxicity call in the assay on HSkMC and with HepG2 was “inactive” throughout. Also, the growth inhibition call in the assay with S. aureus RN4220 was “inactive”.

Take `C[C@@H]1CCCCO[C@@H](CN(C)S(=O)(=O)c2cn(C)cn2)[C@@H](C)CN([C@@H](C)CO)C(=O)c2cc(NC(=O)Nc3cccc4ccccc34)ccc2O1`: the cytotoxicity call with HSkMC and in the assay with HepG2 was “inactive” each time. Also, in the assay on S. aureus RN4220, the growth inhibition call is “inactive”.

Consider `COc1cccc(CNC(=O)C[C@@H]2C=C[C@@H](NC(=O)C3CCOCC3)[C@@H](CO)O2)c1`, for which the cytotoxicity call in the assay on HSkMC and in the assay on HepG2 was “inactive” throughout. The growth inhibition call in the assay on S. aureus RN4220 is “inactive”.

As to `C[C@H](CO)N1C[C@H](C)[C@@H](CN(C)S(=O)(=O)c2cccs2)Oc2c(NC(=O)CCCN(C)C)cccc2C1=O`, the cytotoxicity call in the assay on HSkMC and in the assay on HepG2 was “inactive” throughout. Also, the growth inhibition call in the assay with S. aureus RN4220 is “inactive”.

As to `CCOC(=O)C[C@@H](N)c1ccccc1Cl`, the cytotoxicity call in the assay with HSkMC and in the assay on HepG2 was “inactive” in each case. For the same molecule, the growth inhibition call with S. aureus RN4220 was “inactive”.

As to `COc1ccc(NC(=O)N(C)C[C@H]2Oc3ccc(NC(=O)Nc4cccc5ccccc45)cc3C(=O)N([C@H](C)CO)C[C@@H]2C)cc1`, the cytotoxicity call in the assay with HSkMC and in the assay on HepG2 was “inactive” each time. Moreover, the growth inhibition call in the assay on S. aureus RN4220 was “inactive”.

In the case of `O=S1(=O)COC[C@@H](c2ccccc2)N1`, the cytotoxicity call in the assay on HSkMC and in the assay on HepG2 was “inactive” in each case. Besides, the growth inhibition call in the assay on S. aureus RN4220 was “inactive”.

With `CO[C@@H]1CN(C)C(=O)c2cc(NC(=O)C3CC3)ccc2OC[C@H](C)N(C(=O)C2CCOCC2)C[C@H]1C`, the cytotoxicity call in the assay on HSkMC and in the assay on HepG2 was “inactive” throughout. Further, the growth inhibition call in the assay on S. aureus RN4220 is “inactive”.

Consider `C[C@@H]1CN([C@@H](C)CO)C(=O)c2cc(C#CC3(O)CCCC3)cnc2O[C@@H]1CN(C)S(=O)(=O)c1cccc(F)c1`, for which the cytotoxicity call in the assay with HSkMC and with HepG2 was “inactive” each time. Also, the growth inhibition call with S. aureus RN4220 was “inactive”.

On to `C[C@H](CO)N1C[C@H](C)[C@@H](CN(C)CC2CCCCC2)OCCCC[C@H](C)Oc2ccc(NS(=O)(=O)c3ccccc3)cc2C1=O`, for which the cytotoxicity call in the assay on HSkMC and in the assay on HepG2 was “inactive” in each case. In addition, the growth inhibition call in the assay on S. aureus RN4220 was “inactive”.

As for `COc1ccc(NC(=O)N(C)C[C@@H]2Oc3ccc(NC(=O)Cn4cnnn4)cc3C(=O)N([C@@H](C)CO)C[C@H]2C)cc1`, the cytotoxicity call in the assay on HSkMC and in the assay on HepG2 was “inactive” throughout. Also, the growth inhibition call in the assay on S. aureus RN4220 is “inactive”.

As for `COc1ccc(NC(=O)Nc2cccc3c2O[C@@H](CN(C)CC2CCCCC2)[C@@H](C)CN([C@@H](C)CO)C3=O)cc1`, the cytotoxicity call in the assay on HSkMC and with HepG2 was “inactive” throughout. Also, in the assay on S. aureus RN4220, the growth inhibition call was “inactive”.

In the case of `N[C@@H](Cc1ccc(O)cc1)C(=O)O`, the cytotoxicity call in the assay on HSkMC (human skeletal muscle cells) and in the assay on HepG2 was “inactive” throughout. For the same molecule, the growth inhibition call in the assay on S. aureus RN4220 is “inactive”.

Values taken from the antibiotic and cytotoxicity screens of Wong et al. (2023).
